Assay results as given in PubChem BioAssay AID504333 (National Center for Advancing Translational Sciences (NCATS), 2011).
Among all 360,000 compounds or so, about 16,000 (4.4%) were called active. Inconclusive means that the source gave no clear call. Such entries were picked first, then a sample of the others. The call rests on the fitted dose curve; in most records, active means well fitted inhibition curve with a large enough effect; inconclusive means small, poorly fitted or top-dose-only effect; inactive means no such curve, though single readings can be large or run the other way. Potencies beside an inconclusive call are fits to weak or partial responses and may not hold up.

Each molecule was assayed against Bromodomain adjacent to zinc finger domain protein 2B (Homo sapiens) (UniProt Q9UIF8) (assay: qHTS Assay for Inhibitors of BAZ2B). Conditions: AlphaScreen BAZ2B-H3K14Ac peptide displacement; activity change, negative = inhibition: at 114 µM (top of the series) unless noted.
Procedure, shortened: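 Inhibition is scored as reduced AlphaScreen emission. The BAZ2B/b-H3(5-23)K14Ac complex (50 nM each) in PBS pH 7.4, 0.01% Tween-20 meets compound (up to 110 uM) for 30 min at RT before bead addition.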
Further: nearly all actives have a fitted effect of over 60% in size.
On the % scale 0 is the no-effect control and ±100 the full control effect; potency means the concentration at half of the fitted maximal effect; tags describe the fitted curve by direction and shape.

UniProt Q9UIF8, sequence (Q9UIF8 whole entry, looked up, the tested form may be a part): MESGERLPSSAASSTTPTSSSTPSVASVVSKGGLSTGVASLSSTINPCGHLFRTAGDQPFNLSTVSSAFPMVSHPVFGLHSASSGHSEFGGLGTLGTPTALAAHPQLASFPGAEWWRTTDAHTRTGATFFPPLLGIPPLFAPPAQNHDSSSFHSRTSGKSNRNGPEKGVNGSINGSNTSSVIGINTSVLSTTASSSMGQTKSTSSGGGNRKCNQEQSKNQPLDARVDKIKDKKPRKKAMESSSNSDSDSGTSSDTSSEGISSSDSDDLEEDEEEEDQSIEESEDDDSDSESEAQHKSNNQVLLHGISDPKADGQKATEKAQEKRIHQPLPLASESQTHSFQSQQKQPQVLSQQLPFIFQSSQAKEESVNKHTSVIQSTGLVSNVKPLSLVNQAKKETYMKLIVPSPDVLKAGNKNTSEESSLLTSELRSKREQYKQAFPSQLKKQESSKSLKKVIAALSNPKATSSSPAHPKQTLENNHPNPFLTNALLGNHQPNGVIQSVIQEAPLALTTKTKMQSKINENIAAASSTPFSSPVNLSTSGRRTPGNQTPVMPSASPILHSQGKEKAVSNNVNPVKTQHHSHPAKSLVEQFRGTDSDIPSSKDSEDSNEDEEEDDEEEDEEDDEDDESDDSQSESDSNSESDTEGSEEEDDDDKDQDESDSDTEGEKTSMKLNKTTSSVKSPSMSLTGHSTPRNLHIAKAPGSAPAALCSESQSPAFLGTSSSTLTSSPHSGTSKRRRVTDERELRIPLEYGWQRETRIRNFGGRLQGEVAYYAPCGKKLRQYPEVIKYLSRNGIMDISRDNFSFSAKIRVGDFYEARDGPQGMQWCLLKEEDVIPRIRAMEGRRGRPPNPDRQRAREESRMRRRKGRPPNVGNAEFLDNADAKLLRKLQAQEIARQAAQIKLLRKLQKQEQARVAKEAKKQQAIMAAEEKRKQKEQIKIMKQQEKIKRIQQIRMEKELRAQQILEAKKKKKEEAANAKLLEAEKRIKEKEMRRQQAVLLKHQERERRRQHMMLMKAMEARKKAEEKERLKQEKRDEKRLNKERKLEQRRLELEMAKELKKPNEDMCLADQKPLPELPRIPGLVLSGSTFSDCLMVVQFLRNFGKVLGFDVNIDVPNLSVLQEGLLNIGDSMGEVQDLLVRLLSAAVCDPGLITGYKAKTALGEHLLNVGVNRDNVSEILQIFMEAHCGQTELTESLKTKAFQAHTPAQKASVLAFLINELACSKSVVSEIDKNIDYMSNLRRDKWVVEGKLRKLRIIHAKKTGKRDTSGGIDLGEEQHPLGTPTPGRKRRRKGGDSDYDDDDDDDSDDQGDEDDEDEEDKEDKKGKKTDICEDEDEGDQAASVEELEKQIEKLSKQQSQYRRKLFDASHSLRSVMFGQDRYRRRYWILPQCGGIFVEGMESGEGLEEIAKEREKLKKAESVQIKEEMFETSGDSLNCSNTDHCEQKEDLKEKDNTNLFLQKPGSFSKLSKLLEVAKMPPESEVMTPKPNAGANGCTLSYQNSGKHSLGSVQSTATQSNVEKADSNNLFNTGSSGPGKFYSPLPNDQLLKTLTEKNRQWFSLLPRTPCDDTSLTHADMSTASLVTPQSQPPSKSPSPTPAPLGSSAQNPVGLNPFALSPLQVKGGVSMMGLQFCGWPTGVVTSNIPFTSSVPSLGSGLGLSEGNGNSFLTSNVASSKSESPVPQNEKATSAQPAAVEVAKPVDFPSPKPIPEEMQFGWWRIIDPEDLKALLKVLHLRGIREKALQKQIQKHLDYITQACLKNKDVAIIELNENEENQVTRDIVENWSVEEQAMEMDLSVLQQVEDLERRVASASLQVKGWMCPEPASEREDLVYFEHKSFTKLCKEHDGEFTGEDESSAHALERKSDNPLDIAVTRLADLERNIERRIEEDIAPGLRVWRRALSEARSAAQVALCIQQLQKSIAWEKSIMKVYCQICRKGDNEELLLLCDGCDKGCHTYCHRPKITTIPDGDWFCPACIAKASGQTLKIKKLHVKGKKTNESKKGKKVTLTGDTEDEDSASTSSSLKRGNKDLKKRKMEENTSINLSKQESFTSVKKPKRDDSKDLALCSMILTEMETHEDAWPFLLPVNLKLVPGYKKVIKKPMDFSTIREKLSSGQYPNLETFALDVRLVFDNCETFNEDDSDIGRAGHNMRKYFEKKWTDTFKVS

Row | SMILES | Potency | activity change, negative = inhibition
1 | CCC(C(=O)Nc1ccc(C(=O)OC)cc1)n1nc(-c2ccc(C)c(C)c2)ccc1=O (stereo not drawn) | inactive | 
2 | CC1Cc2ccccc2N1C(=O)CSc1nnc(NC(=O)Cc2cccs2)s1 (stereo not drawn) | inconclusive: 89.1 µM [inhibitor, single point] | 
3 | Fc1ccc(/C=N/n2cnn(Cc3ccccc3Cl)c2=S)cc1 | inactive | 
4 | Cc1c(C(=O)OC2CCCCCC2)[nH]c2c1C(=O)CC(c1ccc(N(C)C)cc1)C2 (stereo not drawn) | inconclusive: 89.1 µM [inhibitor, single point] | 
5 | CN1CCN(c2nc(Nc3ccc(F)cc3)nc(Nc3ccc(F)cc3)n2)CC1 | inconclusive: 44.7 µM [inhibitor, partial curve] | 
6 | CC(C)(O)C#Cc1ccc(CN2CCN(C3CCCC3)C(CCO)C2)cc1 (stereo not drawn) | inconclusive: 1.78 µM [inhibitor, full curve, poor fit] | 
7 | Cc1nn(-c2ccccc2)c(C)c1/C=N/n1c(-c2ccncc2)n[nH]c1=S | inconclusive: 79.4 µM [inhibitor, partial curve] | 
8 | COc1ccccc1CNc1n[nH]c(NCc2ccccc2OC)n1 | inconclusive: 89.1 µM [inhibitor, single point] | 
9 | COc1cc2c(cc1OC)C(c1cc3cc(C)ccc3[nH]c1=O)N(C(=O)c1ccco1)CC2 (stereo not drawn) | inconclusive: 50.1 µM [inhibitor, partial curve] | 
10 | Oc1c(Br)cc(Br)cc1CNc1cnc2ccccc2c1 | inconclusive: 63.1 µM [inhibitor, single point] | 
11 | O=C(O)c1ccc(NC2=C(N3CCOCC3)C(=O)c3ccccc3C2=O)cc1 | inconclusive: 50.1 µM [inhibitor, partial curve] | 
12 | C=CCn1c(COc2ccc(F)cc2)nnc1SCC(=O)NC(=O)NCc1ccco1 |  | inconclusive: -63.5% [inhibitor]
13 | CN(CC(=O)Nc1ccc(OC(F)(F)F)cc1)C1CCCCC1 | inconclusive: 50.1 µM [inhibitor, partial curve] | 
14 | CCCCN(C(=O)c1ccc2c(c1)OCO2)C1CCS(=O)(=O)C1 (stereo not drawn) | inconclusive: 100 µM [inhibitor, single point] | 
15 | COc1cc(NC(C)CCc2ccccc2)cc(OC)c1OC (stereo not drawn) | inconclusive: 79.4 µM [inhibitor, single point] | 
16 | CCOC(=O)C1=NN(C(=O)COc2ccccc2)C(O)(c2ccc(Br)cc2)C1 (stereo not drawn) | inconclusive: 79.4 µM [inhibitor, single point] | 
17 | CC(=O)N(C(C)=O)c1nc2nc(C)cc(C)n2n1 | active: 56.2 µM | 
18 | CCN(CC)C(=O)CSCc1cnn(-c2ccccc2)c1-n1cccc1 | inconclusive: 89.1 µM [inhibitor, single point] | 
